Data reported in patent US20240425561A1 (Hoffmann-La Roche, published 2024).
Where two headings read alike, the source gives them in different places.

T1: IL-7 receptor (IL-7Ra/common gamma chain) on activated human CD4 T cells (human, UniProt P16871 21-459; P31785 23-369)
T1 sequence (looked up) 1: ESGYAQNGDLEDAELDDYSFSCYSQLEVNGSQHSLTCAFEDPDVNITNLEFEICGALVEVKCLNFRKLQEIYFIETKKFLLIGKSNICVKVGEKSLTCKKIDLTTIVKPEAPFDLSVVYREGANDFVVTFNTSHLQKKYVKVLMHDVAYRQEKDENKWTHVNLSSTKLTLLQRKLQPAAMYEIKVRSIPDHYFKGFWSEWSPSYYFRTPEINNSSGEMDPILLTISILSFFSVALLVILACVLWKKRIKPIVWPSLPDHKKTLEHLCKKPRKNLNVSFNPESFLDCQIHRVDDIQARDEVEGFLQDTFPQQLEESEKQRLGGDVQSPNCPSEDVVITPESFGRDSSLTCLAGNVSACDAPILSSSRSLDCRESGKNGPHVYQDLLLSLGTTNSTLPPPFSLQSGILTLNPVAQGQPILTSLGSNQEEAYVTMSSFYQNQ
T1 sequence (looked up) 2: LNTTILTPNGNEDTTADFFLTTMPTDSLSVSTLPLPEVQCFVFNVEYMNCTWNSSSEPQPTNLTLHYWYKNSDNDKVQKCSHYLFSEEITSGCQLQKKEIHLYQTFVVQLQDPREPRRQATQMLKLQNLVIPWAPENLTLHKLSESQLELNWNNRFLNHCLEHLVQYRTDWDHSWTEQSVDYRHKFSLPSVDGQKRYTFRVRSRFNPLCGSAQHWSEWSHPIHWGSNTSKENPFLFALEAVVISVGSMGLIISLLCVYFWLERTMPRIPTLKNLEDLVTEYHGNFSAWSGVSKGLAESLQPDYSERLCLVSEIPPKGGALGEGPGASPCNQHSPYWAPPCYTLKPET

B1: PD1-IL7 VAR21 partially glycosylated (other)
light: DIVMTQSPDSLAVSLGERATINCKASESVDTSDNSFIHWYQQKPGQSPKLLIYRSSTLESGVPDRFSGSGSGTDFTLTISSLQAEDVAVYYCQQNYDVPWTFGQGTKVEIKRTVAAPSVFIFPPSDEQLKSGTASVVCLLNNFYPREAKVQWKVDNALQSGNSQESVTEQDSKDSTYSLSSTLTLSKADYEKHKVYACEVTHQGLSSPVTKSFNRGEC
heavy 1: EVQLLESGGGLVQPGGSLRLSCAASGFSFSSYTMSWVRQAPGKGLEWVATISGGGRDIYYPDSVKGRFTISRDNSKNTLYLQMNSLRAEDTAVYYCVLLTGRVYFALDSWGQGTLVTVSSASTKGPSVFPLAPSSKSTSGGTAALGCLVKDYFPEPVTVSWNSGALTSGVHTFPAVLQSSGLYSLSSVVTVPSSSLGTQTYICNVNHKPSNTKVDKKVEPKSCDKTHTCPPCPAPEAAGGPSVFLFPPKPKDTLMISRTPEVTCVVVDVSHEDPEVKFNWYVDGVEVHNAKTKPREEQYNSTYRVVSVLTVLHQDWLNGKEYKCKVSNKALGAPIEKTISKAKGQPREPQVCTLPPSRDELTKNQVSLSCAVKGFYPSDIAVEWESNGQPENNYKTTPPVLDSDGSFFLVSKLTVDKSRWQQGNVFSCSVMHEALHNHYTQKSLSLSPG
heavy 2: EVQLLESGGGLVQPGGSLRLSCAASGFSFSSYTMSWVRQAPGKGLEWVATISGGGRDIYYPDSVKGRFTISRDNSKNTLYLQMNSLRAEDTAVYYCVLLTGRVYFALDSWGQGTLVTVSSASTKGPSVFPLAPSSKSTSGGTAALGCLVKDYFPEPVTVSWNSGALTSGVHTFPAVLQSSGLYSLSSVVTVPSSSLGTQTYICNVNHKPSNTKVDKKV[human IgG1 Fc with changes left out here]GGGGSGGGGSGGGGDCDIEGKDGKQYESVLMVSIDQLLDSMKEIGSNCLNNEFNFFKRHICDANKEGMFLFRAARKLRQFLKMNSTGDFDLHLLKVSEETTILLNCAGQVKGRKPAALGEAQPTKSLEENKALKEQKKLNDLCFLKRLLQEIKTCWNKILMGTKEH
B2: PD1-IL7 VAR18/VAR21 fully glycosylated (other)
light: B1 light
heavy 1: EVQLLESGGGLVQPGGSLRLSCAASGFSFSSYTMSWVRQAPGKGLEWVATISGGGRDIYYPDSVKGRFTISRDNSKNTLYLQMNSLRAEDTAVYYCVLLTGRVYFALDSWGQGTLVTVSSASTKGPSVFPLAPSSKSTSGGTAALGCLVKDYFPEPVTVSWNSGALTSGVHTFPAVLQSSGLYSLSSVVTVPSSSLGTQTYICNVNHKPSNTKVDKKVEPKSCDKTHTCPPCPAPEAAGGPSVFLFPPKPKDTLMISRTPEVTCVVVDVSHEDPEVKFNWYVDGVEVHNAKTKPREEQYNSTYRVVSVLTVLHQDWLNGKEYKCKVSNKALGAPIEKTISKAKGQPREPQVCTLPPSRDELTKNQVSLSCAVKGFYPSDIAVEWESNGQPENNYKTTPPVLDSDGSFFLVSKLTVDKSRWQQGNVFSCSVMHEALHNHYTQKSLSLSPGK
heavy 2: EVQLLESGGGLVQPGGSLRLSCAASGFSFSSYTMSWVRQAPGKGLEWVATISGGGRDIYYPDSVKGRFTISRDNSKNTLYLQMNSLRAEDTAVYYCVLLTGRVYFALDSWGQGTLVTVSSASTKGPSVFPLAPSSKSTSGGTAALGCLVKDYFPEPVTVSWNSGALTSGVHTFPAVLQSSGLYSLSSVVTVPSSSLGTQTYICNVNHKPSNTKVDKKV[human IgG1 Fc with changes left out here]GGGGSGGGGSGGGGSDCDIEGKDGKQYESVLMVSIDQLLDSMKEIGSNCLNNEFNFFKRHICDANKEGMFLFRAARKLRQFLKMNSTGDFDLHLLEVSEETTILLNCTGQVKGRKPAALGEAQPTKSLEENKSLKEQKKLNDLCFLKRLLQEIKTCWNKILMGTKEH
B3: PD1-IL7 VAR18/VAR21 partially glycosylated (other)
light: B1 light
heavy 1: B1 heavy 1
heavy 2: EVQLLESGGGLVQPGGSLRLSCAASGFSFSSYTMSWVRQAPGKGLEWVATISGGGRDIYYPDSVKGRFTISRDNSKNTLYLQMNSLRAEDTAVYYCVLLTGRVYFALDSWGQGTLVTVSSASTKGPSVFPLAPSSKSTSGGTAALGCLVKDYFPEPVTVSWNSGALTSGVHTFPAVLQSSGLYSLSSVVTVPSSSLGTQTYICNVNHKPSNTKVDKKV[human IgG1 Fc with changes left out here]GGGGSGGGGSGGGGDCDIEGKDGKQYESVLMVSIDQLLDSMKEIGSNCLNNEFNFFKRHICDANKEGMFLFRAARKLRQFLKMNSTGDFDLHLLEVSEETTILLNCAGQVKGRKPAALGEAQPTKSLEENKALKEQKKLNDLCFLKRLLQEIKTCWNKILMGTKEH
B4: PD1-IL7 VAR21 fully glycosylated (other)
light: B1 light
heavy 1: B1 heavy 1
heavy 2: EVQLLESGGGLVQPGGSLRLSCAASGFSFSSYTMSWVRQAPGKGLEWVATISGGGRDIYYPDSVKGRFTISRDNSKNTLYLQMNSLRAEDTAVYYCVLLTGRVYFALDSWGQGTLVTVSSASTKGPSVFPLAPSSKSTSGGTAALGCLVKDYFPEPVTVSWNSGALTSGVHTFPAVLQSSGLYSLSSVVTVPSSSLGTQTYICNVNHKPSNTKVDKKV[human IgG1 Fc with changes left out here]GGGGSGGGGSGGGGDCDIEGKDGKQYESVLMVSIDQLLDSMKEIGSNCLNNEFNFFKRHICDANKEGMFLFRAARKLRQFLKMNSTGDFDLHLLKVSEETTILLNCTGQVKGRKPAALGEAQPTKSLEENKSLKEQKKLNDLCFLKRLLQEIKTCWNKILMGTKEH
B5: Reference molecule 5 (other)
light: B1 light
heavy 1: B2 heavy 1
heavy 2: EVQLLESGGGLVQPGGSLRLSCAASGFSFSSYTMSWVRQAPGKGLEWVATISGGGRDIYYPDSVKGRFTISRDNSKNTLYLQMNSLRAEDTAVYYCVLLTGRVYFALDSWGQGTLVTVSSASTKGPSVFPLAPSSKSTSGGTAALGCLVKDYFPEPVTVSWNSGALTSGVHTFPAVLQSSGLYSLSSVVTVPSSSLGTQTYICNVNHKPSNTKVDKKV[human IgG1 Fc with changes left out here]GGGGSGGGGSGGGGSDCDIEGKDGKQYESVLMVSIDQLLDSMKEIGSNCLNNEFNFFKRHICDANKEGMFLFRAARKLRQFLKMNSTGEFDLHLLKVSEGTTILLNCTGQVKGRKPAALGEAQPTKSLEENKSLKEQKKLNDLCFLKRLLQEIKTCWNKILMGTKEH
B6: Reference molecule 6 (other)
light: B1 light
heavy 1: B2 heavy 1
heavy 2: EVQLLESGGGLVQPGGSLRLSCAASGFSFSSYTMSWVRQAPGKGLEWVATISGGGRDIYYPDSVKGRFTISRDNSKNTLYLQMNSLRAEDTAVYYCVLLTGRVYFALDSWGQGTLVTVSSASTKGPSVFPLAPSSKSTSGGTAALGCLVKDYFPEPVTVSWNSGALTSGVHTFPAVLQSSGLYSLSSVVTVPSSSLGTQTYICNVNHKPSNTKVDKKV[human IgG1 Fc with changes left out here]GGGGSGGGGSGGGGSDSDIEGKDGKQYESVLMVSIDQLLDSMKEIGSNCLNNEFNFFKRHISDANKEGMFLFRAARKLRQFLKMNSTGDFDLHLLKVSEGTTILLNSTGQVKGRKPAALGEAQPTKSLEENKSLKEQKKLNDLCFLKRLLQEIKTSWNKILMGTKEH
B7: Reference molecule 7 (other)
light: B1 light
heavy 1: B2 heavy 1
heavy 2: EVQLLESGGGLVQPGGSLRLSCAASGFSFSSYTMSWVRQAPGKGLEWVATISGGGRDIYYPDSVKGRFTISRDNSKNTLYLQMNSLRAEDTAVYYCVLLTGRVYFALDSWGQGTLVTVSSASTKGPSVFPLAPSSKSTSGGTAALGCLVKDYFPEPVTVSWNSGALTSGVHTFPAVLQSSGLYSLSSVVTVPSSSLGTQTYICNVNHKPSNTKVDKKV[human IgG1 Fc with changes left out here]GGGGSGGGGSGGGGSDCDIEGKDGKQYESVLMVSIDQLLDSMKEIGSNSLNNEFNFFKRHISDANKEGMFLFRAARKLRQFLKMNSTGDFDLHLLKVSEGTTILLNSTGQVKGRKPAALGEAQPTKSLEENKSLKEQKKLNDLSFLKRLLQEIKTCWNKILMGTKEH
B8: Reference molecule 8 (other)
light: B1 light
heavy 1: B2 heavy 1
heavy 2: EVQLLESGGGLVQPGGSLRLSCAASGFSFSSYTMSWVRQAPGKGLEWVATISGGGRDIYYPDSVKGRFTISRDNSKNTLYLQMNSLRAEDTAVYYCVLLTGRVYFALDSWGQGTLVTVSSASTKGPSVFPLAPSSKSTSGGTAALGCLVKDYFPEPVTVSWNSGALTSGVHTFPAVLQSSGLYSLSSVVTVPSSSLGTQTYICNVNHKPSNTKVDKKV[human IgG1 Fc with changes left out here]GGGGSGGGGSGGGGSDCDIEGKDGKQYESVLMVSIDQLLDSMKEIGSNCLNNEFNFFKRHICDANKEGMFLFRAARKLRQFLKMNSTGDFDLHLLKVSEGTTILLNCTGQVKGRKPAALGEAQPTKSLEENKSLKEQKKLNDLCFLKRLLQEIKTCHNKILMGTKEH
B9: PD1-IL7wt (other)
light: B1 light
heavy 1: B2 heavy 1
heavy 2: EVQLLESGGGLVQPGGSLRLSCAASGFSFSSYTMSWVRQAPGKGLEWVATISGGGRDIYYPDSVKGRFTISRDNSKNTLYLQMNSLRAEDTAVYYCVLLTGRVYFALDSWGQGTLVTVSSASTKGPSVFPLAPSSKSTSGGTAALGCLVKDYFPEPVTVSWNSGALTSGVHTFPAVLQSSGLYSLSSVVTVPSSSLGTQTYICNVNHKPSNTKVDKKV[human IgG1 Fc with changes left out here]GGGGSGGGGSGGGGSDCDIEGKDGKQYESVLMVSIDQLLDSMKEIGSNCLNNEFNFFKRHICDANKEGMFLFRAARKLRQFLKMNSTGDFDLHLLKVSEGTTILLNCTGQVKGRKPAALGEAQPTKSLEENKSLKEQKKLNDLCFLKRLLQEIKTCWNKILMGTKEH

Key:
Assay in all cases: cell-based or functional assay
[1] = target: T2, human PD-1 on activated CD4 T cells (human, UniProt Q15116 25-288)
[2] = target: T1, IL-7 receptor (IL-7Ra/common gamma …)
[3] = target: T2, human PD-1 on activated CD4 T cells; remark: listed apart in the source
T2 sequence (Q15116 25-288 limits assumed): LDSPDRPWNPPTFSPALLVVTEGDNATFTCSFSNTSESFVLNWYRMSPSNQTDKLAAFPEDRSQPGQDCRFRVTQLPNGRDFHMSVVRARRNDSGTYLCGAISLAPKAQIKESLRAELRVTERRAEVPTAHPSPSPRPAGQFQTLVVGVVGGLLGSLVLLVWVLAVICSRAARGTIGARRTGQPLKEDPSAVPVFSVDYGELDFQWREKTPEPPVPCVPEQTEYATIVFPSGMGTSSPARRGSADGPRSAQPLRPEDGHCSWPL

Row | Binder | cis-activity as EC50 [PD1^- pre-blocked]/EC50 [PD1^+] [1] | Fold reduction in potency as EC50 [PD1^+]/EC50 [PD1^+ PD1-IL7wt] [2] | cis-activity as EC50 [PD1^- pre-blocked]/EC50 [PD1^+] [3]
1 | B1 | 104 fold | 0.56 fold | –
2 | B2 | – | 3.28 fold | –
3 | B3 | – | 2.17 fold | –
4 | B4 | 77.2 fold | 0.49 fold | 39 fold
5 | B5 | – | – | 2 fold
6 | B6 | – | – | 32.1 fold
7 | B7 | – | – | 0.1 fold
8 | B8 | – | – | 4.5 fold
9 | B9 | – | 1 fold | –
